Results reported in PubChem BioAssay (NCI).
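Assay format: 96-well plates, 48-hour exposure. GI50 = concentration required for 50% inhibition of growth. TGI is the concentration that stops growth completely.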 Numbered stars: 1 amine (or outer) side, 2 acyl side, 3 side chain; on linkers, the order of the positions; unused ones are H or OH. Bridge positions count the residues as written; N and C are the ends. Square brackets hold non-standard residues; d marks the D form. Peptide text beside a SMILES is read from it. I, II: the chains in the order shown. Actinocin(9to1) = Cc1c2oc3c(C)ccc(C(=O)[*:1])c3nc-2c(C(=O)[*:2])c(N)c1=O; NMeH = CN[CH](Cc1c[nH]cn1)C(=O)O; Sar = CNCC(=O)O

Each compound was assayed on NCI-H322M lung (assay: NCI anticancer screen, dose series, 48 h).
Work on Cc1ccc(/C=C/c2c(C(=O)/C=C/c3ccccc3)c(C)nc3ccccc23)cc1 yielded a GI50 of 1.71 µM and a TGI of 3.8 µM. With O=C1COc2cc(N3CCN(c4cccc(C(F)(F)F)c4)CC3)ccc2N1 the TGI was > 100 µM. With O=C(Nc1sccc1S(=O)(=O)c1ccc(Cl)cc1)c1ccc(F)cc1F the TGI was > 100 µM. CC1=NN(c2cccc(Cl)c2)C2(C1=Cc1ccc(O)cc1)C(Cl)C(=O)N2c1nc2ccccc2s1 (stereo not given) was tested, and the TGI was 74.6 µM. In the case of Cc1nc2cc(F)c(F)cc2[nH]c1=O, the TGI was > 100 µM. Work on CN(Cc1cnc2nc(N)nc(N)c2n1)c1ccc(C(=O)NC23CC4CC(CC(C4)C2)C3)cc1 yielded a TGI of 32.3 µM. In the case of C/C(=C\c1ccn(-c2ccccc2N)n1)[C@@H]1C[C@@H]2O[C@]2(C)CCC[C@H](C)[C@H](O)[C@@H](C)C(=O)C(C)(C)[C@@H](O)CC(=O)O1, the GI50 was 0.0442 µM and the TGI was > 50 µM. C=CC(=O)N1CCC(c2ccc(C(N)=O)c(-c3ccc(Oc4ccccc4)cc3)n2)CC1 was tested, and the GI50 was 22.8 µM and the TGI was > 100 µM. With C1=C(c2ccccc2)C(N2CCOCC2)Oc2ccccc21 (stereo not given) the TGI was > 100 µM. COc1ccc(-c2cc(=O)n(-c3nc4ccccc4[nH]3)[nH]2)cc1OC gave a GI50 of 9.94 µM and a TGI of 86.6 µM. C/C(CC(=O)Nc1cccc(Cl)c1C)=N\NC(N)=S was tested, and the TGI was > 100 µM. For COc1ccccc1-n1c(=O)n(C)c(=O)n1C(C)(C)C, the TGI was > 100 µM. In the case of COc1cc2ccc(C(=O)NCCCNC(=O)c3ccc4cc(OC)c(OC)cc4c3)cc2cc1OC, the TGI was > 100 µM. NC(=N\N=C/c1ccc(O)cc1)/C(N)=N\N=C/c1ccc(O)cc1 was tested, and the GI50 was > 68.6 µM and the TGI was > 100 µM. Compound CC[C@@]1(O)C(=O)OCc2c1cc1n(c2=O)Cc2c-1nc1ccc(O)cc1c2[Si](C)(C)C(C)(C)C has a TGI of 18.9 µM. CC1CC[C@@]2(OC1)O[C@H]1[C@H](O)[C@H]3[C@@H]4CC[C@H]5C[C@@H](OC6OC(CO)C(OC7OC(CO)C(O)C(OC8OCC(O)C(O)C8O)C7OC7OC(CO)C(O)C(O)C7OC7OC(CO)C(O)C(O)C7O)C(O)C6O)[C@H](O)C[C@]5(C)[C@H]4CC[C@]3(C)[C@H]1[C@@H]2C (stereo not given in full) was tested, and the TGI was > 10 µM. COc1cc2c(cc1OC)-c1ncc3c(OC)ccc(OC)c3c1C2 gave a GI50 of 13.1 µM and a TGI of 41.3 µM. CN1C(=O)c2ccc3ccccc3c2C1=O was tested, and the TGI was > 100 µM. For CNC(=O)NCC1OC(n2cnc3c(NC(=O)Nc4ccccc4)ncnc32)C(O[Si](C)(C)C(C)(C)C)C1O[Si](C)(C)C(C)(C)C (stereo not given), the GI50 was 6.86 µM and the TGI was > 100 µM. In the case of Nc1cc2c(c3ccccc13)C(CCl)CN2C(=O)c1cc2cc(NC(=O)Nc3ccc4[nH]c(C(=O)N5CC(CCl)c6c5cc(N)c5ccccc65)cc4c3)ccc2[nH]1 (stereo not given), the TGI was 4.74 µM. Work on CO/N=C(\COc1ccc2c(=O)c3ccccc3oc2c1)c1ccccc1 yielded a GI50 of 16.8 µM and a TGI of 47.6 µM. O=C(NCCN1CCOCC1)OCc1nc2nc(Cl)nc(N3CCOCC3)c2[nH]1 was tested, and the GI50 was 4.45 µM and the TGI was > 100 µM. For O[C@@H]1C=C[C@]23CCN(Cc4cc5c(cc42)OCO5)[C@@H]3C1, the TGI was > 100 µM. For C#C[C@]1(O)CC[C@H]2[C@@H]3CC=C4c5sc(Nc6cc(F)ccc6F)nc5CC[C@]4(C)[C@H]3CC[C@@]21C, the GI50 was 1.85 µM and the TGI was 4.83 µM. For N#C/C(=C/C=C/c1ccco1)C(N)=O, the TGI was > 10 µM. In the case of Cc1cccc2c(N)c3cccc(C(=O)NCC[N+](C)(C)Cc4ccc([N+](=O)[O-])s4)c3nc12, the TGI was 48.5 µM. For O=[N+]([O-])c1ccc(NN=C2CN3CCN(C2)c2ccccc23)c([N+](=O)[O-])c1, the TGI was > 100 µM. CC1C(NNC(N)=O)Oc2cc3c(cc2C1c1ccccc1O)OCO3 (stereo not given) was tested, and the TGI was > 100 µM. CCOC(=O)N1C/C(=C\c2ccccc2)C(=O)/C(=C/c2ccccc2)C1 gave a TGI of 55.9 µM. C[C@@H]1[C@@H](C)C(c2ccccc2)O[Si]1(C(C)(C)C)C(C)(C)C (stereo not given in full) showed a TGI of 30.8 µM. For C=CCn1c(=S)sc2c(C(=O)OCC)c3c(C)cc(C)cn3c2c1=O, the TGI was > 100 µM. For Cc1cc(N(CCC#N)S(=O)(=O)c2ccccc2)ccc1/C=C1\N=C(c2ccc(Cl)cc2)OC1=O, the TGI was > 100 µM. N#CC1(C#N)C(C#N)(C#N)C1(C#N)C(N)=O was tested, and the TGI was > 100 µM. In the case of CNc1nnc(CCCCCCCCc2nnc(NC)o2)o1, the TGI was > 100 µM. In the case of C#C[C@]1(O)CC[C@H]2[C@@H]3CCC4=C/C(=N/NC(=O)c5cccc6c(=O)c7ccccc7[nH]c56)CCC4[C@H]3CC[C@@]21C (stereo not given in full), the TGI was > 100 µM. In the case of Cc1c2oc3c(C)ccc(C(=O)NC4C(=O)NC(C(C)C)C(=O)N5CCCC5C(=O)N(C)CC(=O)N(C)C(Cc5cnc[nH]5)C(=O)OC4C)c3nc-2c(C(=O)NC2C(=O)NC(C(C)C)C(=O)N3CCCC3C(=O)N(C)CC(=O)N(C)C(Cc3cnc[nH]3)C(=O)OC2C)c(N)c1=O (stereo not given) (I: TVP[Sar][NMeH] / II: TVP[Sar][NMeH]; ester I:1-I:C, II:1-II:C; linker I:N-II:N via Actinocin(9to1); configuration not given here), the TGI was > 100 µM. C=C1CC(CC)(CCN2C(=O)c3ccccc3C2=O)OC1=O (stereo not given) was tested, and the TGI was > 100 µM. In the case of CCOc1ccc2c(-c3ccnc(Nc4cc(OC)cc(C(F)(F)F)c4)n3)cnn2n1, the GI50 was > 25 µM and the TGI was > 25 µM. In the case of Cc1c(C(=O)c2ccc(N)c3ccccc23)c2ccccc2n1CCN1CCOCC1, the TGI was > 100 µM. COC(=O)c1c2c(c(C)[n+]([O-])c1C)C(=O)C=C(NCc1ccccc1)C2=O was tested, and the GI50 was 1.28 µM and the TGI was 5.7 µM. With COc1c(C(C)=O)c(OCCCCOc2c(C(C)=O)c(OC)c3ccoc3c2OC)c(OC)c2occc12 the GI50 was > 100 µM and the TGI was > 100 µM. In the case of N#C/C(=C1\SCC(=O)N1c1ccccc1)c1nc2ccccc2[nH]1, the TGI was > 100 µM.
